This note sets out measurements from PubChem BioAssay AID1347073 (National Center for Advancing Translational Sciences (NCATS), 2019).

Screen size: about 45,000 compounds; about 200 (0.44%) were called active. Roughly 7% stayed inconclusive and do not appear here. Calls come from the whole dose curve; as a rule, active = well fitted activation curve with a large enough effect; inconclusive = small, poorly fitted or top-dose-only effect; inactive = no such curve, though single readings can be large or run the other way. Some of the results follow.

This experiment in a line: qHTS of TDP-43 Inhibitors: NCGC Sytravon Library Screen. Note: 0% is about no effect; nearly all actives have a fitted effect of over 55% in size. The settings on record: yeast TDP-43 toxicity rescue, BacTiter-Glo growth, 24 h; series mostly up to 46.1 µM; growth rescue (activation): at the top concentration. The procedure, abridged: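 TDP-43-expressing yeast, pregrown in raffinose, seeded at OD600 0.02 in galactose medium with compound for 24 hr at 30 deg C. Growth read by BacTiter-Glo luminescence, so rescue of toxicity appears as activation.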
A general note: Quantitative high-throughput screening tests each substance at several concentrations.
For the molecule `Brc1ccc(OCc2ccccc2)c(CNCC2CCCO2)c1` (configuration not stated), the “growth rescue (activation)” value is inactive: -8.03%.
For `CN(C(=O)c1cnc(N2CCN(c3ncccn3)CC2)c2ccccc12)c1ccc(Cl)cc1`, the “growth rescue (activation)” value is inactive: 24.5%.
Take `COC(=O)CN1C(=S)N(c2ccc(OC)cc2)C(=O)/C1=C/c1cccs1`: the “growth rescue (activation)” value is inactive: -5.35%.
In the case of `Cc1cccc(C)c1NC(=O)CSc1nnc(-c2ccco2)c(-c2ccco2)n1` it was inactive: 32.2%; in that of `Cc1cc(C(=O)N2CCN(S(=O)(=O)c3ccccc3C#N)CC2)c(C)o1`, inactive: 25.2%; in that of `CCCn1c(SCC(=O)Nc2nc(-c3ccc(OC)cc3)cs2)nc2c1c(=O)n(C)c(=O)n2C`, inactive: -21.8%.
For the molecule `COc1ccccc1NC(=O)NC1(C(=O)NCC2CCCO2)CCCCC1` (configuration not stated), the “growth rescue (activation)” value was inactive: 1.8%.
With `O=C(Nc1nc2ccccc2s1)c1cc(-c2ccco2)nc2ccccc12`, the “growth rescue (activation)” value was inactive: 8.01%.
The same measure for `COc1cccc(-c2cnc(C(O)c3cc(C)cc(C)c3)[nH]2)c1` (configuration not stated): inactive: 7.07%; for `O=C(NCC1CCCO1)C1CCCN(S(=O)(=O)c2cccc(C(F)(F)F)c2)C1` (configuration not stated): inactive: 11.3%; for `O=C(CCCN1C(=O)/C(=C\c2cccs2)SC1=S)Nc1cc([N+](=O)[O-])ccc1O`: inactive: 10.3%.
`CCCCc1ccc(NC(=S)NCc2cccc(OC)c2)cc1`: the “growth rescue (activation)” value was inactive: 14.9%.
The same measure for `CCCOc1ccc(C(C)=O)cc1Cc1c(O)nc(SC)[nH]c1=O`: inactive: -2.04%; for `O=C(CSc1n[nH]c(-c2cc(Cl)ccc2Cl)n1)NCCN1C(=O)CSC1=O`: inactive: -3.63%.
The same measure for `CCOc1ccc(NC(=O)Cn2nnc(-c3nc(-c4ccncc4)no3)c2N)cc1`: inactive: 11.8%; for `Cc1ccc(NCC(=O)N/N=C/c2cc(O)ccc2[N+](=O)[O-])cc1`: inactive: -8.84%; for `COC(=O)c1cccc(NC(=O)CSc2nnc(-c3ccco3)o2)c1`: inactive: 1.58%.
The same measure for `O=C(CCc1nnc(CCCCc2ccccc2)o1)N1CCN(CCO)CC1`: inactive: 11.7%; for `CN(c1ccc(C(=O)N2CCN(Cc3ccccc3)CC2)cc1)S(=O)(=O)c1ccccc1`: inactive: -16.2%; for `COc1cc(C(=S)N2CCOCC2)cc(OC)c1OC(=O)c1ccccc1[N+](=O)[O-]`: inactive: -10.7%.
For `CC(NCC(=O)Nc1ccccc1C(=O)NC1CC1)c1cccc(Cl)c1` (configuration not stated), the “growth rescue (activation)” value was inactive: 20.1%.
For `COc1ccc(CNC(=O)COC(=O)Cc2ccc(Br)cc2)cc1`, the “growth rescue (activation)” value is inactive: 16.7%.
The same measure for `O=C(Nc1ccc([N+](=O)[O-])cc1)Nc1ccc(Cl)cc1F`: inactive: -10.5%.
Take `CCCNC(=O)c1cc(C2CCCCN2S(=O)(=O)Cc2cccc(C(F)(F)F)c2)on1` (configuration not stated): the “growth rescue (activation)” value is inactive: 34.9%.
As for `CCOC(=O)Nc1ccc2c(COC(=O)CN(C)S(=O)(=O)c3ccc(C)cc3)cc(=O)oc2c1`, the “growth rescue (activation)” value is inactive: -1.87%.
For `CCn1c(=O)c2cc(C(=O)N(C)c3ccccc3F)sc2c2ccccc21`, the “growth rescue (activation)” value was inactive: 4.9%.
In the case of `CCCc1nnc(SCC(=O)Nc2ccc(OC)cc2)o1` it was inactive: -0.417%; in that of `Cc1cc(C)n(CCNS(=O)(=O)c2ccccc2)n1`, inactive: 8.54%.
In the case of `COc1ccc(C2CCCN2C(=S)Nc2cccc(Cl)c2)cc1OC` (configuration not stated) it was inactive: 26%.
The same measure for `O=C(Nn1c(-c2ccncc2)nc2ccccc2c1=O)c1ccc([N+](=O)[O-])cc1Cl`: inactive: -2.17%; for `Cc1cc(C)c(NC(=O)CSc2nnnn2-c2cccnc2)c(C)c1`: inactive: 7.15%; for `COc1cccc(CN2CCNC(=O)C2CC(=O)NCCc2ccccn2)c1` (configuration not stated): inactive: -16%.
On to `O=C(c1cc(F)ccc1F)C1CCCN(C(=O)CCc2cnccn2)C1` (configuration not stated), for which the “growth rescue (activation)” value was inactive: 14.7%.
In the case of `COC(CNC(=O)C1CCCN1C(=O)OCc1ccccc1)OC` (configuration not stated) it was inactive: -9.69%.
On to `Cn1c(=O)c2ccccc2n(Cc2ccccc2Cl)c1=O`, for which the “growth rescue (activation)” value is inactive: 16.6%.
The same measure for `CCOC(=O)c1cnc2c(C)cc(C)cc2c1Nc1ccc(S(=O)(=O)Nc2ncccn2)cc1`: inactive: -29.3%; for `Cc1ccccc1NC(=O)Cn1cnc2c(oc3nc4c(cc32)COC(C)(C)C4)c1=O`: inactive: -19.6%; for `Cc1ccc(N(CCC#N)C(=O)CCl)cc1C`: inactive: -0.866%.
The same measure for `O=c1cc(N2CCC3(CC2)OCCO3)[nH]c(=O)n1C1CCCCC1`: inactive: -4.13%; for `COc1cccc(CN2C(=O)NC3(CCCCCC3)C2=O)c1`: inactive: 17.7%.
In the case of `Cc1ccc(NC(=O)CN(C)Cc2cc(=O)n3ccsc3n2)cc1`, the “growth rescue (activation)” value is inactive: -18.2%.
Consider `CCC(=O)N(Cc1cc(=O)[nH]c2ccccc12)c1ccccc1`, for which the “growth rescue (activation)” value is inactive: -5.82%.
Turning to `CS(=O)(=O)Nc1ccc(C(=O)Nc2ccccc2Cl)cc1`, the “growth rescue (activation)” value is inactive: -5.35%.
In the case of `Cc1cc(NS(=O)(=O)c2ccc(NC(=O)/C=C/c3ccccc3)cc2)no1` it was inactive: 2.75%.
In the case of `CC1(C(=O)Nc2ccc3c(c2)OCO3)Cc2c(-c3cccc(C(N)=O)c3)ccnc2O1` (configuration not stated) it was inactive: 7.09%.
In the case of `O=[N+]([O-])c1ccc(OCCCCN2CCCCC2)cc1` it was inactive: -1.45%.
For `Cc1ccc(CNC(=O)CO/N=C/c2ccc(C(C)(C)C)cc2)cc1`, the “growth rescue (activation)” value is inactive: -4.19%.
Consider `CCOC(=O)c1ccc2ncc(C(=O)OCC)c(Nc3ccc(N4CCOCC4)cc3)c2c1`, for which the “growth rescue (activation)” value was inactive: 11.7%.
The same measure for `COCCNc1nc(-c2ccccc2)nc2ccccc12`: inactive: 11.8%.
As for `CCN(C(=O)c1cc2c(=O)[nH]c3ccc(C)cc3c2s1)c1ccccc1F`, the “growth rescue (activation)” value was inactive: -39.2%.
The same measure for `CC1CCN(CCCn2c(=S)[nH]c3ccccc3c2=O)CC1`: inactive: -13.3%.
`Cc1cc(C)nc(/N=C(\N)Nc2ccc(S(N)(=O)=O)cc2)n1`: the “growth rescue (activation)” value was inactive: 11.9%.
In the case of `Cc1cc(N2CCOCC2)nc2ccc(NC(=O)CCC(=O)N3CCN(c4ccc(F)cc4)CC3)cc12` it was inactive: 14%; in that of `COc1cc(NC(=O)C2CCN(c3cnccn3)CC2)cc(OC)c1`, inactive: -5.34%; in that of `CCCCN(C(=O)c1cccc(C)c1)c1c(N)n(CCC)c(=O)[nH]c1=O`, inactive: 1.37%.
The same measure for `CCOc1ccc(/C=C2\SC(=S)N(CCC(=O)Nc3cccc(C(=O)O)c3)C2=O)cc1`: inactive: 0.0297%; for `COc1cc(/C=C/C(=O)C2C(=O)C=C(C)OC2=O)cc(OC)c1O` (configuration not stated): inactive: 4.44%.
`C=CCNc1ncnc2c1ncn2[C@H]1CN(Cc2cccc3ccccc23)C[C@@H](CO)O1`: the “growth rescue (activation)” value is inactive: 1.37%.
As for `CN(Cc1ccc(C(F)(F)F)cc1)C(=O)c1ccc2ccccc2n1`, the “growth rescue (activation)” value is inactive: 23.7%.
In the case of `COc1ccc(S(=O)(=O)Nc2ccc3c(c2)n(C)c(=O)n3C)cc1` it was inactive: 12.9%; in that of `O=C(CCCOc1ccccc1)Nc1ccccc1C(F)(F)F`, inactive: 26.8%; in that of `N#Cc1ccc(/C=C/C(=O)c2cccnc2)cc1`, inactive: -7.15%.
The same measure for `CCOc1ccc(CN2CCN(Cc3cc4c(cc3Cl)OCO4)CC2CCO)cc1` (configuration not stated): inactive: -4.9%; for `O=C(Nc1ccc(C(=O)O)cc1)/C(=C\c1cccc([N+](=O)[O-])c1)NC(=O)c1ccc(Br)o1`: inactive: -3.62%; for `CCC(=O)c1cn(CC(=O)Nc2cccc(OC)c2)c2ccccc12`: inactive: 3.89%.
Regarding `CS(=O)(=O)c1ncc(Cl)c(C(=O)Nc2ccc3ccccc3c2)n1`, the “growth rescue (activation)” value was inactive: 18.3%.
Take `CCOc1cc(S(=O)(=O)n2ccnc2)ccc1Br`: the “growth rescue (activation)” value is inactive: 11.6%.
